Measured values: the supplement of paper PMC4604168 (melanoma cell lines)
The other results are listed elsewhere or left out. Most values come without repeats; read them as rough.

What follows are molecules tested on WM1745 (assay: cell count relative to DMSO control; melanoma cells; higher = more viable cells). Conditions: library dose: low library concentration; 72 h.
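Also: cell number obtained by counting DAPI-stained nuclei in high-throughput microscope images with image analysis software, screen run in 1,536-well plates.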

| SMILES | cell count [%] |
| --- | --- |
| CS(=O)(=O)CCNCc1ccc(-c2ccc3ncnc(Nc4ccc(OCc5cccc(F)c5)c(Cl)c4)c3c2)o1 [lapatinib] + NC(=O)Nc1cc(-c2cccc(F)c2)sc1C(=O)N[C@H]1CCCNC1 [AZD7762] (first compound 0.8 µM, partner dose 0.02 µM) | 83.7 |
| C[C@@H](Oc1cc(-c2cnn(C3CCNCC3)c2)cnc1N)c1c(Cl)ccc(F)c1Cl [Crizotinib] + O=C(Nc1ccccc1)c1cc([N+](=O)[O-])ccc1Cl [GW9662] (first compound 0.2 µM, partner dose 2 µM) | 88.8 |
| CNC(=O)c1cc(Oc2ccc(NC(=O)Nc3ccc(Cl)c(C(F)(F)F)c3)cc2)ccn1 [sorafenib] + Cc1cc(N2CCOCC2)cc2[nH]c(-c3c(NC[C@@H](O)c4cccc(Cl)c4)cc[nH]c3=O)nc12 [BMS536924] (first compound 0.4 µM, partner dose 0.2 µM) | 78 |
| CN1CCN(c2ccc3nc(-c4c(N)c5c(F)cccc5[nH]c4=O)[nH]c3c2)CC1 [Dovitinib] + CC(C)(C)c1cnc(CSc2cnc(NC(=O)C3CCNCC3)s2)o1 [SNS-032] (first compound 0.1 µM, partner dose 0.01 µM) | 77.2 |
| C=CCNC1=C2C[C@@H](C)C[C@H](OC)[C@H](O)[C@@H](C)/C=C(\C)[C@H](OC(N)=O)[C@@H](OC)/C=C\C=C(/C)C(=O)NC(=CC1=O)C2=O [Tanespimycin] + NCC(=O)Nc1ccc(-n2nc(C(F)(F)F)cc2-c2ccc3c(ccc4ccccc43)c2)cc1 [OSU03012] (first compound 0.002 µM, partner dose 1 µM) | 100 |
